The results in this text go back to PubChem BioAssay AID1240 (Sanford-Burnham Center for Chemical Genomics, 2008).

Structures are written as SMILES. The campaign covered roughly 50,000 compounds. About 800 (1.6%) showed an effect of 50% or more. Some of the results follow.

The experiment deals with Bcl-2-like protein 10 (Homo sapiens) (UniProt Q9HD36). Kind of experiment: Phenotype converters, Bcl-B/TR3 peptide binding displacement, primary biochemical FP (AID 1240).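 Also: 0% = Bcl-B with tracer peptide and DMSO and 100% = tracer peptide lacking Bcl-B.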 As to conditions: GST-Bcl-B / FITC-TR3 peptide fluorescence polarization; stronger effect = higher value; compound at 3.75 mg/L. Background: Fluorescence polarisation rises when a labelled molecule tumbles more slowly, as on binding a larger partner.
UniProt Q9HD36, sequence (Q9HD36 whole entry, looked up): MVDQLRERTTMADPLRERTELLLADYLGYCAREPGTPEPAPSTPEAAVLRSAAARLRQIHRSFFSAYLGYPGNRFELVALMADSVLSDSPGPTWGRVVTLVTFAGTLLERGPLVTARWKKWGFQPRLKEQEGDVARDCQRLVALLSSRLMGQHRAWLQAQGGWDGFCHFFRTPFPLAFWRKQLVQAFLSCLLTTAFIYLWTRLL
In the case of `CCOc1ccccc1NC(=O)COc1ccc2ccccc2c1`, the displacement was determined as 3.7%.

As for `O=C(COc1cccc2ccccc12)Nc1ccc2c(c1)OCO2`, the displacement amounted to 5.2%. As for `c1ccc2sc(SCCOCCSc3nc4ccccc4s3)nc2c1`, the displacement stood at 11.8%. As for `Cc1cc(Cl)ccc1OCCCC(=O)NC1CCCCCCC1`, the displacement was -7.8%. Regarding `COc1ccccc1/C=C1/SC(=O)N(CNc2ccc(F)cc2)C1=O`, the displacement is 4.5%. With `O=C(O)/C=C/c1cc(C(=O)O)c(/C=C/C(=O)O)cc1C(=O)O`, the displacement is -2.6%. Turning to `CCOc1ccc(NC(=S)NC(=O)c2ccc(F)cc2)c([N+](=O)[O-])c1`, the displacement stood at 13.3%.

Consider `NS(=O)(=O)c1ccc(CNS(=O)(=O)Cc2ccccc2)cc1`, for which the displacement is -2.9%.

As for `CC(=O)n1cc(C2C(=O)CC(C)(C)CC2=O)c2ccccc21`, the displacement was -6.8%. The same measure for `Cc1ccc(C(C)C)c(OCc2nnc(NC(=O)c3ccc(Br)cc3)s2)c1`: -16.7%; for `CCc1ccc(OCC(=O)Nc2c(C)ccc3nsnc23)cc1`: 10%; for `O=C(c1ccccc1)c1ccc(N=Cc2ccc([N+](=O)[O-])s2)cc1`: 8.8%. On to `CC(=O)N1CCN(c2ccc(NC(=O)c3sc4ccccc4c3Cl)cc2)CC1`, for which the displacement stood at 0.7%. With `COc1cccc(C(=O)Nc2nnc(-c3ccc([N+](=O)[O-])cc3)s2)c1` the figure was 1.8%; with `CCCOc1ccc(/C=N/Nc2nc(-c3ccccc3)nc(C)c2C)c(O)c1`, -14%. Turning to `C=CCc1cccc(/C=N/N=C2/NC(=O)CS2)c1O`, the displacement was -5.7%. With `COc1ccc(OC)c(N2C(=O)c3cccc4cccc(c34)C2=O)c1` the figure was -11.3%; with `COC(=O)c1ccc(C(=O)Nc2cc(Cl)ccc2Cl)cc1N=NC1=C(O)CC(C)(C)CC1=O`, 16.9%. With `CCC(CC)NCc1cccc([N+](=O)[O-])c1` the figure was 1.5%; with `CCOc1cccc2c1N(C(=O)Cc1ccccc1)C(C)(C)c1ssc(=S)c1-2`, 13.7%. `Cc1ccc(-c2ccc(OCC(=O)Nc3ccc(F)cc3)cc2)cc1`: the displacement was -5.8%. With `O=C(/C=C/c1cccc([N+](=O)[O-])c1)Nc1cc(C(F)(F)F)cc(C(F)(F)F)c1` the figure was -9.7%; with `CN1C(=O)/C(=N/OC(=O)c2ccccc2F)c2ccccc21`, 2.5%; with `COc1ccc(C2Nc3ccc(Br)cc3C(c3ccccc3)N2CC(=O)O)cc1` (stereo not drawn), 21.2%. With `COc1ccc(NC(=O)CCc2ccccc2)c(OC)c1` the figure was 4.6%; with `Cc1cc(C)cc(OCC(=O)NNC(=O)CN2C(=O)c3ccccc3C2=O)c1`, -1.6%. Consider `CCOCCOC(=O)c1cccc(NC(=O)C(C(C)C)N2C(=O)c3ccccc3C2=O)c1` (stereo not drawn), for which the displacement amounted to 1.1%.

Take `COc1ccc(C2CC(c3cccs3)=NN2C(=O)CCC(=O)O)cc1` (stereo not drawn): the displacement stood at 6.9%.

In the case of `COc1ccc(Cc2cnc(NC(=O)c3ccccc3Cl)s2)cc1`, the displacement stood at 7.9%. The same measure for `NC(=O)C1CCN(C(=O)CCc2ccccc2)CC1`: 3.2%; for `CC1=NN(c2cccc(C(=O)O)c2)C(=O)/C1=C\c1ccc(N(C)C)c(Br)c1`: 4.5%; for `Cc1ccccc1N1C(=O)CC(SC2=NCCS2)C1=O` (stereo not drawn): 15.9%. `COc1cccc(CN2CCN(C(=O)c3cccc(OC)c3OC)CC2)c1`: the displacement was -1.6%. Consider `CCN(CC)CCCCCCOc1ccc(Cl)cc1`, for which the displacement was -9.3%.

As for `O=[N+]([O-])c1ccc(N2CCOCC2)cc1NCCCO`, the displacement came out at 7.9%.

On to `Clc1ccccc1CN1CCN(N=Cc2cccc(Cl)c2Cl)CC1`, for which the displacement worked out at 8%. The same measure for `O=C1C(=O)N(Cc2ccccc2)C(c2ccc(Cl)cc2)/C1=C(/O)c1ccccc1` (stereo not drawn): 5.5%.

As for `CCOc1ccccc1NC(=O)c1ccc(CN(c2ccccc2)S(C)(=O)=O)cc1`, the displacement came out at 6.6%. With `CCc1ccccc1NC(=O)c1ccc(CN2CCc3ccccc3C2)cc1` the figure was 0.8%. With `O=C(c1ccccc1Cl)N1CCN(c2ccccn2)CC1` the figure was -8.7%; with `Cc1cccc(/C(N)=N/OC(=O)c2ccc(Cl)cc2Cl)c1`, 2.7%. Turning to `CCc1ccc(C2(c3ccc(CC)cc3)CC2C(=O)Nc2nccs2)cc1` (stereo not drawn), the displacement was -15%. For `CC(C)c1ccc2c(c1)c1c3n2CCNC3CCC1` (stereo not drawn), the displacement came to 18.1%.

`COc1cccc(NC(=O)CSc2nc3ccc(OC)cc3[nH]2)c1`: the displacement is -9.1%. On to `CC(=O)N(CCC1(Cc2ccccc2)CCOC(C)(C)C1)Cc1ccccc1` (stereo not drawn), for which the displacement turned out to be 7.8%.

Consider `O=C(O)/C=C/c1ccc(-c2ccccc2Br)o1`, for which the displacement is -2.2%. With `O=C(c1cc2nc(-c3cccs3)cc(C(F)(F)F)n2n1)N1CCOCC1` the figure was -10.7%; with `COc1ccc(Cl)cc1C(=O)Nc1ccc2c3c(cccc13)CC2`, 38.5%. For the compound `CCCOC(=O)c1ccc(NC(=O)COc2ccc(C(C)C)cc2)cc1`, the displacement came to 7.1%. With `O=c1oc(-c2ccco2)cc(-c2ccccc2)c1-c1ccccc1` the figure was 7.1%. On to `Cc1cc(=O)oc2cc(OC(=O)c3ccccc3)cc(OC(=O)c3ccccc3)c12`, for which the displacement turned out to be 5.4%. With `COc1ccc(CCNC(=O)Cc2ccccc2)cc1`, the displacement is -15.3%.

Turning to `COc1ccc(OCCOCCOc2ccc(OC)cc2)cc1`, the displacement turned out to be 3.9%.

As for `O=C1CSC(=S)N1NS(=O)(=O)c1ccccc1`, the displacement is -21.9%. With `COc1cc(/C=C2/SC(=S)N(Cc3ccccc3)C2=O)ccc1OC(=O)c1cccs1` the figure was 16.4%; with `N#Cc1c(SCC(=O)c2ccc(Cl)cc2)nc2c(c1-c1ccco1)CCCC2`, 14%; with `O=C(COc1ccc([N+](=O)[O-])cc1)Nc1cc(C(F)(F)F)ccc1Cl`, -7.9%. The same measure for `O=C(/C=C/c1ccccc1Cl)Nc1cccc(Br)c1`: 16.3%; for `CC(=O)C(C(=O)c1ccccc1)C(=O)c1ccccc1`: -1.1%; for `CC(C)C(=O)Nc1ccc(N2CCOCC2)cc1`: 0.5%. With `COc1ccc(Cl)cc1NC(=O)c1cnn2c1NC(c1cccs1)CC2C(F)(F)F` (stereo not drawn) the figure was 8.3%. For the compound `CCSC(=S)Nc1c(C)n(C)n(-c2ccccc2)c1=O`, the displacement is 4.6%. Take `O=C(NN1C(=O)c2ccc([N+](=O)[O-])cc2C1=O)c1cccnc1`: the displacement was 1.5%. The same measure for `N#CC(C#N)=CNc1ccc([N+](=O)[O-])cc1`: -12.3%; for `Cc1ccc(/C=C2\SC(=S)N(CCC(=O)Nc3cccc(O)c3)C2=O)cc1`: -0.2%; for `OC(COc1ccccc1)CN1CCCCCC1` (stereo not drawn): -5.9%. With `COc1cccc(/C=C2/SC(=O)N(CN3CCCCC3)C2=O)c1`, the displacement was -3.9%. The same measure for `Cc1cccc(NC(=O)/C=C/c2ccc(Cl)cc2)c1`: 19.1%. The same measure for `COc1ccc(/C=C2\C=C(c3ccc(Br)cc3)OC2=O)c(C)c1`: 2.4%. The same measure for `O=C1CC(c2ccc3c(c2)OCO3)c2cc(Br)c3ccccc3c2N1` (stereo not drawn): 1%; for `CC(=O)CCc1c(C)nc2c(C)cccc2c1Cl`: -0.6%; for `COC(=O)c1c(NC(=O)c2ccccc2[N+](=O)[O-])sc(Cc2ccccc2)c1C`: -11.9%. Take `O=C(C(C(=O)N1CCOCC1)C12CC3CC(CC(C3)C1)C2)N1CCOCC1`: the displacement came to 3.3%. With `CC(C)OC(=O)c1c(-c2ccc(C(C)C)cc2)csc1N` the figure was 3.8%; with `COC(=O)c1ccccc1NC(=O)c1cc([N+](=O)[O-])ccc1Cl`, 10.5%; with `O=C(Nc1ccc(Br)cc1)C1C(c2ccccc2)=C1c1ccccc1`, -6.7%. Take `O=C(Nc1ccc(I)cc1)N1CCOCC1`: the displacement worked out at 0.8%.

For the compound `COc1ccc(CCC(=O)Nc2cc(Cl)cc(Cl)c2)cc1`, the displacement is 0.3%.

As for `CS(=O)(=O)N(CC(=O)Nc1ccccc1C(F)(F)F)c1cccc(Cl)c1`, the displacement was 3.9%.

For the compound `O=[N+]([O-])C1=CC(=[N+]([O-])[O-])C=CC12N(Cc1ccccc1)C1=CC=CC=CC1=[N+]2Cc1ccccc1` (stereo not drawn), the displacement was 15%. With `O=C(COc1cccc(Cl)c1)NCc1ccccc1` the figure was -4.4%; with `O=C(Nc1cccc(Cl)c1)c1ccccc1Br`, 6.5%; with `CCc1cc2c(C)cc(=O)oc2cc1OC(C)=O`, 10.1%. In the case of `O=C(CSC1=NCCS1)Nc1cccc(C(F)(F)F)c1`, the displacement is -2.1%. `CCOC(=O)c1c(NC(=O)c2ccc(OC)cc2)sc(C(=O)Nc2cc(C(F)(F)F)ccc2Cl)c1C`: the displacement was found to be 7.6%. Turning to `CC(=O)Oc1ccc(C(=O)Nc2cccc(-c3nnc(-c4ccccc4)o3)c2)cc1`, the displacement was determined as 8.4%. With `Cn1cccc1CC(=O)N/N=C/c1ccccn1`, the displacement was -20.8%. With `CCOC(=O)N1CCN(c2cc(N3CCOCC3)c(F)cc2[N+](=O)[O-])CC1` the figure was -4.2%; with `O=C1CC(NCc2ccco2)C(=O)N1CCc1ccccc1` (stereo not drawn), 7.3%. With `CCOC(=O)C1(C(=O)O)NC(=O)CC1c1ccccc1` (stereo not drawn) the figure was 7.8%; with `NC1=NC(=O)/C(=C/c2ccc(OC(=O)c3ccc(Cl)c(Cl)c3)cc2)S1`, -11.9%; with `O=C(Nc1nc2ccc(Br)cc2s1)c1ccc(S(=O)(=O)N2CCCCC2)cc1`, -6.7%.

As for `N/C(=N/N=C\c1cccc(O)c1)c1ccccn1`, the displacement was -14.6%. Consider `COC(=O)CNS(=O)(=O)c1ccc(OC)cc1`, for which the displacement came out at 12%.

For the compound `O=C(NCCN1CCOCC1)c1c(Cl)cccc1Cl`, the displacement is -10%. With `Cc1cc(C)nc(NS(=O)(=O)c2ccc(Nc3nc(-c4sc(N)nc4C)cs3)cc2)n1` the figure was -3.8%. As for `CCCCN(CCCC)CCNC(=O)C(=O)NCc1ccccc1`, the displacement is -12.6%.

Turning to `Cc1cccc(C(=O)NNC(=O)C2CCCO2)c1` (stereo not drawn), the displacement is -9.2%. With `C=CCOc1ccc2c(C(F)(F)F)cc(=O)oc2c1` the figure was 1.4%; with `c1ccc(-n2nnnc2SCc2nc3ccccc3[nH]2)cc1`, 3.8%; with `Cc1ccc(S(=O)(=O)Nc2ccccc2-c2nc3ccccc3c(=O)[nH]2)cc1`, 1.4%. The same measure for `O=C(Nc1ccc(NC(=O)c2ccc(Br)cc2)cc1)c1ccc(Cl)cc1`: 0.1%; for `CC(C)N(Cc1ccccc1)C(=O)/C=C/c1cccc([N+](=O)[O-])c1`: 15.1%. With `O=C(Nc1ccccc1)N1CCc2ccccc2C1` the figure was -0.6%; with `CC1=C(C(=O)OC(C)C)C(c2cc3c(cc2[N+](=O)[O-])OCO3)C2=C(CC(C)(C)CC2=O)N1` (stereo not drawn), -3.3%; with `COc1cccc(CN2CCN(Cc3cccc([N+](=O)[O-])c3)CC2)c1`, -6.6%. For the compound `O=C(N=Nc1c(O)n(CN2CCCCC2)c2ccccc12)c1ccncc1`, the displacement is -5.2%. The same measure for `COc1ccccc1NC(=O)c1oc2ccc(C)cc2c1C`: -10.5%; for `O/N=C/c1ccc(OCc2ccc(Cl)c(Cl)c2)cc1`: -8.8%. The same measure for `O=C(CSCc1ccccc1)Nc1ccccc1Br`: 13.8%. With `O=c1/c(=C/c2ccco2)sc2nnc(-c3ccccc3)n12` the figure was 26.9%; with `O=C(Nc1ccccc1OC(F)(F)F)c1sc2ccccc2c1Cl`, -0.6%.

In the case of `O=C(Cc1ccccc1)N1N=CCC1(O)c1ccccc1` (stereo not drawn), the displacement turned out to be 2.1%.
